Laboratory results reported in PubChem BioAssay AID485344 (National Center for Advancing Translational Sciences (NCATS), 2010).
Among all 340,000 compounds or so, about 6,900 (2%) were called active. Cut-off read from the data, not from the text of the source: active = inhibition above about 30%; inactive = below that, where a call was filed. The entries are a selection whose mix differs from that of the whole data set. The source gives no active or inactive call for entries shown without one.
Note: 0% is about no effect.

These molecules were tested against D(2) dopamine receptor (Homo sapiens) (UniProt P14416) (assay: HTS Assay for Allosteric Antagonists of the Human D2 Dopamine Receptor: Primary Screen for Antagonists). Conditions: HEK293 TREx D2 cells, calcium flux, dopamine EC80; at 10 µM; stronger effect = higher value.
Sequence of UniProt P14416 (P14416 whole entry, looked up): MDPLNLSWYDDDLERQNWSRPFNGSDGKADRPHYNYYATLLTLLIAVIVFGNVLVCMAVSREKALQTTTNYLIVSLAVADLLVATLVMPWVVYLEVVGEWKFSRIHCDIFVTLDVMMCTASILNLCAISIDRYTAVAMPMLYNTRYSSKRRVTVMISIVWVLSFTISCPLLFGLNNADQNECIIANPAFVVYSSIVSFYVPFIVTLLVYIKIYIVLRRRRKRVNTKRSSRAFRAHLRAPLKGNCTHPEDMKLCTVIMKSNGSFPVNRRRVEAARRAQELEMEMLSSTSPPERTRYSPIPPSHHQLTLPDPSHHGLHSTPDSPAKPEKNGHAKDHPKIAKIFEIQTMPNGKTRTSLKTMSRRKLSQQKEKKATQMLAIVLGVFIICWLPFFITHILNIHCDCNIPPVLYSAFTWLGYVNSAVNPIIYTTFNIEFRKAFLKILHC
Procedure, shortened: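 HEK293 T-REx D2 cells, tet-induced, calcium dye no-wash. Cpd pintool add, 180 s kinetic, then EC80 DA, 180 s kinetic. Ca flux read.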
Work on `CCOc1ccccc1CNC(=O)CN(c1ccc(C)cc1)S(=O)(=O)N(C)C` yielded an inhibition of -8.79%.
`COc1ccc(-c2nnc(SCC(=O)NCc3ccccc3)nc2-c2ccc(OC)c(OC)c2)cc1OC` showed an inhibition of -8.89%.
`CC(C)(C)c1ccc(S(=O)(=O)c2cnc(SCC(=O)Nc3ccc(F)c(Cl)c3)[nH]c2=O)cc1` showed an inhibition of 19.1%.
`CCOc1ccc(NC(=O)Cc2ccc(NC(=O)N3CCCCc4ccccc43)cc2)cc1` gave an inhibition of 10.8%.
In the case of `N#CCc1ccc(C(=O)c2ccccc2)s1`, the inhibition is reported as active: 40%.
Work on `CCOC(=O)c1cc(-c2ccc(F)cc2)n(CC(=O)NCc2ccc(OC)cc2)c1C` yielded an inhibition of -3.86%.
Work on `CC(C)CCNC(=O)CN1C(=O)c2cccnc2Oc2ccccc21` yielded an inhibition of 2.79%.
With `N#Cc1ccccc1S(=O)(=O)N1CCCC(c2nc3c(nnn3Cc3cccc(Cl)c3)c(=O)[nH]2)C1` (configuration not stated) the inhibition was 6.84%.
With `Cc1csc2nc(CCNS(=O)(=O)c3ccccc3)cn12` the inhibition was -5.1%.
For `CN(C)c1ccc(C(CNC(=O)c2ccccc2F)N2CCc3ccccc32)cc1` (configuration not stated), the inhibition was 13.4%.
`CCCCNc1nc2c(S(=O)(=O)c3ccc(Cl)cc3)nnn2c2ccsc12` gave an inhibition of -17.5%.
In the case of `Cc1nn(-c2ccccc2)c2c1N(CCCC(=O)NCc1ccc(Cl)cc1)C(=O)CS2`, the inhibition is reported as -4.28%.
For `O=C(NCc1ccco1)c1c[nH]c2ccc(S(=O)(=O)Nc3ccc(F)cc3F)cc2c1=O`, the inhibition was -2.52%.
For `CN1CCN(C(=O)c2cnn(-c3cccc(Cl)c3)c2C2CCN(C(=O)OC(C)(C)C)CC2)CC1`, the inhibition was 7.12%.
`CCS(=O)(=O)c1nc2ccccc2n1CC(=O)Nc1ccccc1C(=O)OC` gave an inhibition of 3.9%.
`Oc1c(C(c2ccc(Br)cc2)N2CCOCC2)sc2nc(-c3ccco3)nn12` (configuration not stated) was tested, and the inhibition was 9.3%.
`CCc1ccc(C(=O)c2c(N)c(-c3nc(-c4ccc5c(c4)OCO5)cs3)c3ccccn23)cc1` showed an inhibition of 5.08%.
For `COc1ccc2nc3sc(C(=O)N4CCN(c5ccccc5)CC4)cc3cc2c1`, the inhibition was 6.62%.
Work on `Cc1c2cnn(-c3ccccc3)c(=O)c2c(C)n1CC(=O)N1CCN(c2ccc(F)cc2)CC1` yielded an inhibition of -11.9%.
With `CCN(CCCNC(=O)CSc1cc(=O)n(C)c2cc(Cl)ccc12)c1cccc(C)c1` the inhibition was 0.78%.
Molecule `COc1cc(-c2noc(-c3ccc(N4CCOCC4)c([N+](=O)[O-])c3)n2)cc(OC)c1OC` has an inhibition of 18.2%.
For `COc1cccc(-c2nc(CS(=O)(=O)CC(=O)Nc3cc(F)ccc3F)c(C)o2)c1`, the inhibition was 2.07%.
With `Cc1ccc(NC(=O)CSc2nc3ccccc3c3nc(CCn4cncc4C)nn23)c(C)c1` the inhibition was 9.58%.
For `Cc1ccc(OCC(=O)N(Cc2ccco2)Cc2ccco2)cc1`, the inhibition was -8.34%.
For `CN(Cc1ccccc1)C(C(=O)NC1CCCCC1)c1ccc(Cl)cc1` (configuration not stated), the inhibition was 27.1%.
`COc1cc(OC)c(NC(=O)CCn2cccn2)cc1Cl` gave an inhibition of 6.49%.
`Fc1ccc(C(Nc2ccc(Cl)c(C(F)(F)F)c2)c2nnc(-c3ccccc3)o2)cc1` (configuration not stated) was tested, and the inhibition was 1.33%.
With `Cc1ccc(N2C(=O)c3ccccc3NC2C(C)Cc2ccc3c(c2)OCO3)cc1` (configuration not stated) the inhibition was active: 33.7%.
For `O=C(Cn1c(=O)n(-c2ccc(Cl)cc2)c(=O)c2sc3ccccc3c21)NC1CCCCC1`, the inhibition was 2.66%.
`COc1ccc(-c2cc(C(F)(F)F)nc(NCc3ccccc3)n2)cc1` was tested, and the inhibition was -1.61%.
With `COC(=O)c1c(C)[nH]c(C(=O)C(C)Sc2nnc(-c3cc(OC)c(OC)c(OC)c3)o2)c1C` (configuration not stated) the inhibition was active: 32.1%.
`COc1cc(/C=C(\C#N)c2nc3ccc(C)cc3[nH]2)ccc1OC(C)C` showed an inhibition of -12.4%.
In the case of `COc1ccc2cc3cc(C(=O)NCCc4ccccc4)sc3nc2c1Cl`, the inhibition is reported as 11%.
With `CCc1ccc(S(=O)(=O)c2c[nH]c3cc(OC)c(OC)cc3c2=O)cc1` the inhibition was 6.04%.
For `CCc1ccccc1N(C)S(=O)(=O)c1ccc2[nH]cc(C(=O)NCCOC)c(=O)c2c1`, the inhibition was 24.6%.
With `O=C(Nc1ccc(Br)cc1)c1ccc(Br)c(S(=O)(=O)N2CCCCC2)c1` the inhibition was 1.55%.
Work on `Cc1ccc(CCNC(=O)c2cc3sccc3n2Cc2ccc(F)cc2)cc1` yielded an inhibition of 3.82%.
Work on `COC(=O)c1c(NC(=O)COc2ccccc2Cl)sc2c1CCC(C(C)(C)C)C2` (configuration not stated) yielded an inhibition of -5.34%.
With `Cc1cn2c(=O)cc(COC(=O)c3cccc(NC(=O)COc4ccc(Cl)cc4)c3)nc2s1` the inhibition was -1.38%.
`COC(=O)c1ccc(Cl)cc1NC(=O)N1CCC(CN2CCCC2)CC1` gave an inhibition of 16.9%.
For `Cc1ccc(C(=O)c2cn(Cc3ccccc3F)c3cc4c(cc3c2=O)OCO4)cc1`, the inhibition was 18.3%.
In the case of `N#C/C(=C\c1ccc(Br)cc1)c1nc(-c2cc3cc(Br)ccc3oc2=O)cs1`, the inhibition is reported as 0.376%.
`Cc1cccc(-n2ncc(C(=O)NCc3ccco3)c2C2CCN(C(=O)OC(C)(C)C)CC2)c1` was tested, and the inhibition was 11.9%.
In the case of `O=C(CSc1ncc2c(n1)-c1ccccc1N(Cc1ccc(F)cc1)S2(=O)=O)NCc1ccccc1`, the inhibition is reported as 2.02%.
In the case of `CCc1nn(CC(=O)NCCN(CC)CC)c(=O)c2cc3occc3n12`, the inhibition is reported as 8.25%.
With `Cc1nc2cccnc2n1C1CCN(S(=O)(=O)c2ccc(C(C)C)cc2)CC1` the inhibition was -6.53%.
Work on `CCn1c(=O)c2cc(C(=O)N(C)c3cc(Cl)c(OC)cc3OC)sc2c2ccccc21` yielded an inhibition of 0.383%.
Molecule `Cc1cccc(CNC(=O)CCCN2C(=O)COc3ccc(C)cc32)c1` has an inhibition of -4.14%.
`Cc1ccc(N2CCN(C(=O)c3c(C)oc4nc(C)nc(N5CCCC5)c34)CC2)c(C)c1` was tested, and the inhibition was -3.94%.
For `COc1cccc(NS(=O)(=O)c2ccc(Br)s2)c1`, the inhibition was active: 33.7%.
In the case of `CCOC(=O)c1cccc(NC(=O)N2CC(CC)Oc3ccccc32)c1` (configuration not stated), the inhibition is reported as -11.9%.
Work on `COc1ccc(NC(=O)c2sc3nc4c(cc3c2N)CCCCCC4)cc1Cl` yielded an inhibition of 4.05%.
With `COc1cc(NS(=O)(=O)c2ccc(NC(=O)c3ccc(C(C)=O)cc3)cc2)nc(OC)n1` the inhibition was 3.14%.
Work on `CCOc1ccc(-c2cc(CCCC(=O)NCCc3ccc(OCC)c(OCC)c3)no2)cc1` yielded an inhibition of -27.3%.
Molecule `CCCOC(=O)c1ccc(Nc2nc3ccccc3nc2-n2nc(C)cc2C)cc1` has an inhibition of 1.34%.
`Cc1ccccc1NC(=O)c1ccc(F)c(S(=O)(=O)NC2CCCC2)c1` was tested, and the inhibition was -28.6%.
`CCN1CCN(C(=O)c2ccc3c(c2)N(Cc2ccccc2F)C(=O)c2ccccc2S3(=O)=O)CC1` was tested, and the inhibition was -13.2%.
Molecule `O=C(CSc1nc(-c2ccco2)nc2cc(=O)[nH]n12)Nc1ccccc1F` has an inhibition of 3.2%.
Molecule `O=C(c1ccccc1Cl)N1CCN(CCc2ccccn2)CC1` has an inhibition of 17.1%.
`COc1ccc(NC(=O)CSc2nc(C)cc(C)c2C(=O)Nc2cccc(C)c2)cc1` gave an inhibition of -9.69%.
`COc1ccc2cc3cc(C(=O)Nc4ccccc4C)oc3nc2c1` showed an inhibition of 1.72%.
`COc1cccc(C(=O)Nc2ccccc2-c2nnc(-c3ccc(C(C)(C)C)cc3)o2)c1` gave an inhibition of 2.9%.
`COc1cccc(N2CCN(C(=O)Cn3ncc4c5ccccc5n(C)c4c3=O)CC2)c1` showed an inhibition of -0.831%.
Molecule `Cc1cccc(-c2noc(-c3cc(-c4ccc(F)cc4)n[nH]3)n2)c1` has an inhibition of 0.121%.
`Cc1oc2ncn(C)c(=O)c2c1C(=O)NCc1ccccc1` showed an inhibition of -12%.
With `COC(=O)c1ccc(NC(=O)CN2CCN(c3ccccc3)CC2)cc1` the inhibition was active: 95%.
Work on `COc1cc(OC)cc(C(=O)Nc2nc(-c3nnn(-c4ccc(F)c(Cl)c4)c3C)ns2)c1` yielded an inhibition of 14.3%.
With `COc1cccc(CN2CCc3nc(N4CCN(C)CC4)ncc3C2)c1` the inhibition was -4.24%.
`CCOc1ccc(CCNC(=O)Cc2ccc(NC(=O)N3CCSc4ncccc43)cc2)cc1` was tested, and the inhibition was 7.56%.
In the case of `COc1ccc(-n2nc(C(=O)N3CCN(c4cccc(C(F)(F)F)c4)CC3)c3c4ccccc4n(C)c3c2=O)cc1Cl`, the inhibition is reported as 10.9%.
With `O=C(CSc1ccc(-c2cccs2)nn1)Nc1cccc(F)c1` the inhibition was 12.2%.
With `COc1ccccc1N1CCN(c2ncnc3onc(C)c23)CC1` the inhibition was 13.4%.
Work on `COc1ccc(-c2cc(C)no2)cc1S(=O)(=O)N1CC(C)Oc2ccccc21` (configuration not stated) yielded an inhibition of -2.67%.
For `O=C(NCCN1CCOCC1)c1cccc(Cl)c1`, the inhibition was active: 32.7%.
Work on `COc1ccc(-n2c(SCC(=O)NCc3ccccc3)nc3n[nH]c(C)c3c2=N)cc1` yielded an inhibition of 6.27%.
`CN(C(=O)c1oc(=O)c2ccccc2c1-c1ccccc1)c1cccc(Cl)c1` was tested, and the inhibition was 3.12%.
`CCCn1c(=O)c2sccc2n2c(CCCC(=O)Nc3ccccc3F)nnc12` gave an inhibition of 0.124%.
`COc1cccc(N2CCN(C(=O)Cn3ncc4c(=O)oc5ccccc5c43)CC2)c1` was tested, and the inhibition was -6.39%.
With `COc1ccc(C(=O)/C=C/c2cc(OC)c(O)c(OC)c2)c(F)c1` the inhibition was active: 33.3%.
In the case of `O=C1CC(c2cccc(F)c2)c2c(n3ncnc3[nH]c2=O)N1` (configuration not stated), the inhibition is reported as 3.74%.
`CCOC(=O)Cn1c(=O)n(C2CCCCC2)c2nc(-c3cccc(C)c3)nc(C(N)=O)c21` gave an inhibition of 6.52%.
Work on `O=C(CSc1nc(O)c(C/C=C/c2ccccc2)c(=O)[nH]1)Nc1cccc(F)c1` yielded an inhibition of -1.26%.
`CC(C)(C)c1ccc(S(=O)(=O)N2CCN(C(=O)c3cc(-c4ccc(Br)cc4)n[nH]3)CC2)cc1` was tested, and the inhibition was 19.4%.
In the case of `CCOc1ccc(NC(=O)c2noc3c2CSc2ccccc2-3)cc1`, the inhibition is reported as 6.11%.
In the case of `CCOCCc1nn2c(=O)cc(COC(=O)c3ccco3)nc2s1`, the inhibition is reported as 9.35%.
Work on `COc1cc(-c2noc(-c3ccc(N4CCCCC4)c([N+](=O)[O-])c3)n2)cc(OC)c1OC` yielded an inhibition of 11.4%.
With `COc1cccc(CNC(=O)c2nnc(Cc3ccc(Cl)cc3)o2)c1` the inhibition was -5.58%.
`O=C(Nc1ccc2oc(-c3cc(Br)ccc3Cl)nc2c1)c1ccc2ccccc2c1` gave an inhibition of 19.3%.
`Cc1csc2nc(-c3cccc(NC(=O)c4ccccc4F)c3)cn12` showed an inhibition of -22.2%.
`COc1cc(-c2nc3cnccn3c2Nc2ccc(C(C)C)cc2)ccc1O` showed an inhibition of -10.1%.
`COc1cccc(CNC(=O)CCS(=O)(=O)c2cc3c4c(c2)CCN4C(=O)CC3)c1` showed an inhibition of 2.67%.
For `CCc1ccc(Cn2c(CNS(=O)(=O)c3ccc(Cl)s3)nc3cccnc32)cc1`, the inhibition was -4.01%.
For `COc1ccccc1-c1ccnc2c(-c3ccc(Br)cc3)c(C)nn12`, the inhibition was 12.7%.
Work on `Cc1ccccc1NC(=O)CSc1nnc(-c2cccc(Cl)c2)o1` yielded an inhibition of 5.81%.
In the case of `COc1ccc(CNC(=O)C(C)n2nc(C)c3sc4ccccc4c3c2=O)cc1OC` (configuration not stated), the inhibition is reported as -5.06%.
With `CCOC(=O)c1cc2c(=O)n3ccccc3nc2n(CC2CCCO2)c1=NC(=O)c1ccccc1F` (configuration not stated) the inhibition was -6.24%.
In the case of `Nc1nc(CN2CCN(c3ccccc3F)CC2)nc(N2CCCc3ccccc32)n1`, the inhibition is reported as active: 78.7%.
